# Counter-ions that a name gives are not always drawn. ± gives the standard deviation of the averaged measurements. Out of some 1,000 compounds screened, about 15 (2%) showed an effect of 50% or more. This is one part of the list.
# Test system: HFF
# Experiment: uninfected host cell viability relative to vehicle control; higher = less host cell toxicity
# Settings: 5 µM; 72 h; oxygen 21 %
# 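Note: confluent HFF monolayers, run in parallel with the Toxoplasma growth screen as a host toxicity counterscreen.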
row,Structure (SMILES),uninfected host cell viability [%]
1,Cc1scc2c1N(C(=O)CN1CCN(C)CC1)c1ccccc1NC2=O [Telenzepine dihydrochloride],90.6 ± 2.6
2,CCSC(=N)N [EIT hydrobromide],83.6 ± 3.5
3,COc1ccc(CN(CCN(C)C)c2ccccn2)cc1 [Mepyramine maleate],89.3 ± 3
4,CNC(=O)c1cc2c(cn1)[nH]c1ccccc12,82.7 ± 2.8
5,CSc1nc(NC2CCCC2)c([N+](=O)[O-])c(NC2CCCC2)n1,100.8 ± 0.12
6,CCOC(=O)c1ccc(OC(=O)CCCCCNC(=N)N)cc1 [Gabexate mesylate],89.8 ± 11
7,CCOC(=O)[C@H](CCc1ccccc1)N[C@H]1CCc2ccccc2N(CC(=O)O)C1=O [Benazepril hydrochloride],88.7 ± 3.2
8,COc1cccc(NC(=O)/C=C/c2ccc(Cl)cc2)c1,79.5 ± 2.4
9,CC(C)(C)NC[C@H](O)COc1nsnc1N1CCOCC1 [(S)-Timolol maleate],84.73 ± 0.69
10,COc1ccc(NC(=O)c2ccc(-c3ccc(-c4noc(C)n4)cc3C)cc2)cc1OCCN(C)C,36.9 ± 27
11,Nc1nc(Cl)nc2c1ncn2[C@@H]1O[C@H](CO)[C@@H](O)[C@@H]1F [Clofarabine],87 ± 3.5
12,Cc1cc(C)c(N(Cc2ccccc2)S(=O)(=O)c2ccc(OCCNC(=O)c3cc4ccccc4o3)cc2)c(C(=O)NO)c1,51.2 ± 3.1
13,Nc1nc(F)nc2c1ncn2[C@@H]1O[C@H](CO)[C@@H](O)[C@@H]1O [Fludarabine],87.5 ± 2
14,OC(c1ccccc1)C1CCN(CCc2ccccc2)CC1 (stereo not drawn),101 ± 7.3
15,COc1ccc(NC(=O)c2cc(OCCCN(C)C)nn2Cc2ccccc2)cc1 [CFM 1571 hydrochloride],81.7 ± 2
16,O=c1ncccn1[C@@H]1O[C@H](CO)[C@@H](O)[C@H]1O [Zebularine],90.802 ± 0.032
17,N#Cc1ccccc1OCC(O)CNCCNC(=O)Nc1ccccc1 (stereo not drawn),86.9 ± 1.3
18,C[C@H](NC(=O)c1sccc1OCc1ccc(Cl)cc1)c1ccccc1,115 ± 1.5
19,O=c1cc(-c2ccc(O)cc2)oc2cc(O)cc(O)c12 [Apigenin],94.8 ± 1.1
20,CCc1cc(C(C)=O)c(O)cc1OCCCCCC(C)(C)c1nn[nH]n1,91.1 ± 4.2
21,C[C@@H](N)[C@H]1CC[C@H](C(=O)Nc2ccncc2)CC1,98.7 ± 2.2
22,Cc1cc(C)cc(C(=O)N(C)[C@H](Cc2ccc(-c3ccccc3)cc2)C(=O)N[C@@H](Cc2c[nH]c3ccccc23)C(=O)O)c1,83.95 ± 0.62

row,Structure (SMILES),uninfected host cell viability [%]
1,Cc1cccc(/C=C/c2ccccc2)n1,96.29 ± 0.92
2,CCCCCCCC/C=C\CCCCCCCC(=O)N[C@@H](CO)Cc1ccc(O)cc1,84.5 ± 2.3
3,Cc1nc2c(c(=O)[nH]1)CSCC2,110 ± 25
4,CCCC[C@@H](C=O)NC(=O)[C@H](CC(C)C)NC(=O)OCc1ccccc1 [Calpeptin],94.8 ± 1.4
5,COc1nc(C)nc(Cl)c1NC1=NCCN1 [Moxonidine hydrochloride],89.6 ± 1.9
6,COc1cc2nc(N3CCN(C(=O)c4ccco4)CC3)nc(N)c2cc1OC [Prazosin hydrochloride],88.7 ± 3.1
7,Cc1cc(Cn2cnc3c2CC(C(=O)O)N(C(=O)C(c2ccccc2)c2ccccc2)C3)ccc1N(C)C (stereo not drawn),82.1 ± 3.1
8,CCN(CC)CCOc1ccc(Cc2ccccc2)cc1 [DPPE fumarate],86.65 ± 0.8
9,CC(=O)N[C@@H](CC(=O)N[C@@H](CCC(=O)O)C(=O)O)C(=O)O [Spaglumic acid],90.29 ± 0.078
10,c1ccc(C(NCCNC(c2ccccc2)c2ccccc2)c2ccccc2)cc1 [AMN 082 dihydrochloride],89.1 ± 2.2
11,Cc1c(C(=O)N(C)C2CCCCC2)sc2nc3ccc(N)cc3n12,83.6 ± 2.2
12,COc1ccc2[nH]cc(CCNC(C)=O)c2c1 [Melatonin],96.1 ± 1.4
13,O=Nc1c(-c2c(O)[nH]c3ccccc23)[nH]c2ccccc12 [Indirubin-3'-oxime],75.1 ± 6.9
14,CCN(Cc1ccncc1)C(=O)C(CO)c1ccccc1 (stereo not drawn) [Tropicamide],86.8 ± 8.4
15,O=C(NCCNCC(O)COc1ccc(O)cc1)N1CCOCC1 (stereo not drawn) [Xamoterol hemifumarate],85.4 ± 3.2
16,"Nc1nc2c(nc(Br)n2[C@@H]2O[C@@H]3COP(=O)(O)O[C@H]3[C@H]2O)c(=O)[nH]1 [8-Bromo-cGMP, sodium salt]",89.8 ± 1.7
17,Cc1c(C(=O)NC2CCCCC2)sc2nc3ccc(N)cc3n12,78.76 ± 0.33
18,COc1ccc(S(=O)(=O)N2c3ccc(Cl)cc3[C@](O)(c3ccccc3Cl)[C@@H]2C(=O)N2CCC[C@H]2C(N)=O)cc1OC,87.61 ± 0.29
19,O=c1oc(-c2ccc(C(F)(F)F)cc2)nn1Cc1cc(Cl)ccc1O,95.1 ± 1
20,"CCCC(=O)Nc1ncnc2c1ncn2[C@@H]1O[C@@H]2COP(=O)(O)O[C@H]2[C@H]1OC(=O)CCC [Dibutyryl-cAMP, sodium salt]",84.83 ± 0.28
21,NC(C(=O)O)c1cc(O)cc(O)c1 (racemic),86.3 ± 2.7
22,Fc1ccc(-c2nc3n(c2-c2ccncc2)CCS3)cc1,67 ± 4.2

row,Structure (SMILES),uninfected host cell viability [%]
1,N[C@@H](C(=O)O)c1ccc(C(=O)O)c(C(=O)O)c1,89 ± 7.8
2,O=Nc1ccc(O)c2ncccc12,54.96 ± 0.076
3,CC[N+](C)(CC)CC(=O)Nc1c(C)cccc1C [N-Methyllidocaine iodide],87.9 ± 3.1
4,Nc1ccc(-c2cccc3c(=O)cc(N4CCOCC4)oc23)cc1,77 ± 0.83
5,CC1=C(/C=C/C(C)=C/C=C/C(C)=C/C(=O)Nc2ccc(O)cc2)C(C)(C)CCC1 [Fenretinide],75.39 ± 0.053
6,CC(C)CC(NC(=O)OCC1c2ccccc2-c2ccccc21)C(=O)O (stereo not drawn),96.67 ± 0.32
7,O=C1C(=O)N(Cc2ccc(Cl)c(Cl)c2)c2ccccc21 [Apoptosis Activator 2],90.7 ± 1.9
8,Cc1ccc(/C=N/NC(=O)c2ccccc2Oc2ccccc2)o1,96.6 ± 2.1
9,COc1cc2nc(N3CCN(C(=O)C4CCCO4)CC3)nc(N)c2cc1OC (stereo not drawn) [Terazosin hydrochloride],84.4 ± 1.8
10,C[C@@H](CN1CCC(n2c(=O)[nH]c3cc(Cl)ccc32)CC1)NC(=O)c1ccc2ccccc2c1,94.4 ± 5.7
11,O=C(O)COc1cccc(-c2ocnc2-c2nc(-c3ccccc3)c(-c3ccccc3)o2)c1,105 ± 3.5
12,Cn1cc(C(=O)OCC2CCN(CCNS(C)(=O)=O)CC2)c2ccccc21,77 ± 1.9
13,COc1ccc(Nc2nccc(NCCO)n2)cc1 [Cardiogenol C hydrochloride],88.6 ± 2.6
14,FC(F)(F)c1ccc(/C=C/c2nc(COc3ccc(CCCCn4ccnn4)cc3)co2)cc1,109.3 ± 0.5
15,CC(C)NCCN(C(C)C)S(=O)(=O)c1ccc(Cl)cc1Cl,88.9 ± 1
16,CN(Cc1ccccc1)C(=O)[C@H](Cc1ccc2ccccc2c1)NC(=O)[C@@H]1C[C@@H](O)CN1C(=O)c1cn(C)c2ccccc12,83.97 ± 0.68
17,Cc1cccc(Nc2cc(Cl)nc(SCC(=O)O)n2)c1C,83.4 ± 5.4
18,Cn1cc(C2=C(c3ccc(Cl)cc3Cl)C(=O)NC2=O)c2ccccc21,72.6 ± 4.2
19,CN(N=O)C(=O)N[C@@H](C=O)[C@@H](O)[C@H](O)[C@H](O)CO [Streptozocin],86.9 ± 5.4
20,O=C(NC(NC(=S)Nc1ccc(F)c([N+](=O)[O-])c1)C(Cl)(Cl)Cl)C(c1ccccc1)c1ccccc1 (stereo not drawn),86.1 ± 11
21,Cc1ccc(C(=O)Nc2ccc(S(=O)(=O)O)c3cc(S(=O)(=O)O)cc(S(=O)(=O)O)c23)cc1NC(=O)c1cccc(NC(=O)Nc2cccc(C(=O)Nc3cc(C(=O)Nc4ccc(S(=O)(=O)O)c5cc(S(=O)(=O)O)cc(S(=O)(=O)O)c45)ccc3C)c2)c1 [Suramin hexasodium salt],91.2 ± 1.9
22,CCc1c2c(nc3ccc(OC(=O)N4CCC(N5CCCCC5)CC4)cc13)-c1cc3c(c(=O)n1C2)COC(=O)[C@]3(O)CC,97.4 ± 3.2

row,Structure (SMILES),uninfected host cell viability [%]
1,Cc1ccc(/C(=C\CN2CCCC2)c2ccccn2)cc1 [trans-Triprolidine hydrochloride],95.4 ± 1.1
2,Nc1ncnc2nc(-c3ccc(N4CCOCC4)nc3)cc(-c3cccc(Br)c3)c12 [ABT 702 dihydrochloride],75.7 ± 2.7
3,C=CCn1c(=O)n([C@@H]2O[C@H](CO)[C@@H](O)[C@H]2O)c2nc(N)[nH]c(=O)c21,86.7 ± 1.6
4,CCn1c(=O)[nH]c2ccccc21,95.8 ± 5.6
5,O=C(O)C1=CCNCC1 [Isoguvacine hydrochloride],88.42 ± 0.37
6,CS(=O)(=O)Nc1ccc([N+](=O)[O-])cc1Oc1ccccc1 [Nimesulide],96.85 ± 0.37
7,CC#CCOC(=O)c1c(C)nc2sc3c(c2c1N)CCC(O)C3 (stereo not drawn),87.4 ± 1.4
8,CCCCCCCCCCC(C)(C)C(=O)Nc1c(OC)cc(OC)cc1OC,117 ± 4.1
9,CCOC(=O)c1c(C)[nH]c2ccc3c(c12)CN1CCc2cc(OC)ccc2C1O3 (stereo not drawn),96.1 ± 2.8
10,CC[C@@H]1Cn2c(c3nc(-c4ccccc4)nc-3n(C)c2=O)N1,89.2 ± 4.1
11,CC(=O)N1CCN(c2ccc(OCC3COC(Cn4ccnc4)(c4ccc(Cl)cc4Cl)O3)cc2)CC1 (stereo not drawn) [Ketoconazole],87 ± 2.2
12,Cc1[nH]c(/C=C2\C(=O)Nc3ccccc32)c(C)c1CCC(=O)O,82.9 ± 1.8
13,CN(C)CCCCSC(=N)N,101.2 ± 0.9
14,CC(C)NCC(O)c1ccc(NS(C)(=O)=O)cc1 (stereo not drawn) [Sotalol hydrochloride],92.2 ± 11
15,Oc1ccc(Nc2nc(-c3ccc(Cl)cc3)cs2)cc1,89.4 ± 1.8
16,COc1cc2ncnc(Nc3ccc(Cl)cc3F)c2cc1OC,79.94 ± 0.48
17,CC(=O)NNC(=O)N1Cc2ccccc2Oc2ccc(Cl)cc21,88.9 ± 1.7
18,OC1CCC(Nc2nc(-c3ccccc3)nc3[nH]ccc23)CC1 (stereo not drawn),85.37 ± 0.31
19,CCCCCCN(CCCCCC)C(=O)Cc1c(-c2ccc(F)cc2)[nH]c2ccccc12,104.6 ± 0.91
20,O=c1c(-c2ccc(O)cc2)coc2cc(O)cc(O)c12 [Genistein],84.8 ± 3.4
21,CC(C)C[C@H](NC(=O)[C@@H](O)[C@H](N)Cc1ccccc1)C(=O)O [Bestatin],84.7 ± 2.2
22,CNC(=C[N+](=O)[O-])NCCSCc1ccc(CN(C)C)o1 [Ranitidine hydrochloride],96.8 ± 2.2

# Source: the supplement of paper PMC4894684
